{"source": "PubChem BioAssay AID485344", "about": "(National Center for Advancing Translational Sciences (NCATS), 2010)", "note": "Among all 340,000 compounds or so, about 6,900 (2%) were called active. No stated cut-off is given here; in the data, active means inhibition above about 30%; inactive means below that, where a call was filed. The entries are a selection whose mix differs from that of the whole data set. The source gives no active or inactive call for entries shown without one.", "data": [{"target": "D(2) dopamine receptor (Homo sapiens) (UniProt P14416)", "sequence (P14416 whole entry, looked up)": "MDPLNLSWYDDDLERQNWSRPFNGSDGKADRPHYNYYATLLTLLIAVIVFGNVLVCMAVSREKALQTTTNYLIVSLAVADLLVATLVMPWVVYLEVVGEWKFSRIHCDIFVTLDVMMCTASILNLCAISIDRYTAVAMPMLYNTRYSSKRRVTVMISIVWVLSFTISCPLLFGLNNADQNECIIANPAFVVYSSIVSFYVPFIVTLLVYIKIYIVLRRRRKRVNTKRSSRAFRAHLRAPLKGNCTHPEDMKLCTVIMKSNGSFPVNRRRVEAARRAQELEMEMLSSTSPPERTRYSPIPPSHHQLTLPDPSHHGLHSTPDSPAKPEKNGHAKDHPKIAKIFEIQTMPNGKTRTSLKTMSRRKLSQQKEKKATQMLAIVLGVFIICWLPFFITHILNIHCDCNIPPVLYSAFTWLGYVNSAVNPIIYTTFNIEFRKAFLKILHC", "assay": "HTS Assay for Allosteric Antagonists of the Human D2 Dopamine Receptor: Primary Screen for Antagonists; further: 0% is about no effect", "conditions": "HEK293 TREx D2 cells, calcium flux, dopamine EC80; at 10 µM; stronger effect = higher value", "summary_of_the_method": "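Tetracycline-induced HEK293 T-REx cells expressing D2 force-coupled to calcium signalling were dye-loaded, exposed to compound for 180 s, then challenged with an EC80 of dopamine; calcium flux was followed kinetically for a further 180 s.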", "values": [{"smiles": "CCc1ccc(-n2nc(C)c3c(C(=O)Nc4cc(C)ccc4C)cc(C)nc32)cc1", "inhibition": "7.88%"}, {"smiles": "CCOc1ccccc1CNC(=O)C1CCCN(S(=O)(=O)c2ccc3c(ccn3C)c2)C1", "note": "(configuration not stated)", "inhibition": "-13.6%"}, {"smiles": "CC1CCN(S(=O)(=O)c2nnc(NC(=O)c3cccc(F)c3)s2)CC1", "inhibition": "-14%"}, {"smiles": "COC(=O)c1sc2cccc(F)c2c1S(=O)(=O)N1CCN(c2ccc(C)cc2C)CC1", "inhibition": "-8.4%"}, {"smiles": "COc1nc(-c2ccc(C)cc2)ccc1-c1noc(-c2ccc(C(C)(C)C)cc2)n1", "inhibition": "-8.91%"}, {"smiles": "COc1ccc(CCNC(=O)C2CC(=O)N(C3CCCCCCC3)C2)cc1OC", "note": "(configuration not stated)", "inhibition": "active: 92.7%"}, {"smiles": "Cc1cccc(N2CCN(C(=O)c3ccc4c(c3)c(C)c(C)n4C)CC2C)c1", "note": "(configuration not stated)", "inhibition": "3.22%"}, {"smiles": "Cc1ccc(NC(=O)c2cc(S(=O)(=O)N3CCCC3)c[nH]2)c(C)c1", "inhibition": "19.6%"}, {"smiles": "Cc1cncn1CCc1nc2c3ccccc3nc(SCC(=O)Nc3ccccc3F)n2n1", "inhibition": "-28.3%"}, {"smiles": "Cc1ccc(-n2c(SCC(N)=O)nc3c([nH]c4ccccc43)c2=O)cc1", "inhibition": "-13.4%"}, {"smiles": "O=C(c1ccc(CS(=O)(=O)c2c(Cl)cccc2Cl)o1)N1CCN(c2ccccc2)CC1", "inhibition": "13.5%"}, {"smiles": "CCC(C)NCCOc1cccc(Br)c1", "note": "(configuration not stated)", "inhibition": "active: 45%"}, {"smiles": "Cc1ccc(Cl)cc1N1CCN(c2ncnc3onc(-c4ccc(F)cc4)c23)CC1", "inhibition": "-10.6%"}, {"smiles": "Cc1ccc(Cn2c(C)c(CNC(C)c3ccccc3)c(C(=O)O)c2C)cc1", "note": "(configuration not stated)", "inhibition": "6.75%"}, {"smiles": "Cc1ccc(S(=O)(=O)Cc2nc(-c3ccc(C(=O)NCc4ccccc4F)cc3)oc2C)cc1", "inhibition": "15.8%"}, {"smiles": "Cc1ccc(-c2nnc(Nc3cccc(C(F)(F)F)c3)c3ccccc23)cc1S(=O)(=O)N1CCOCC1", "inhibition": "9.86%"}, {"smiles": "CC(C)(C)c1ccc(-c2noc(CCC(=O)Nc3cccc(Cl)c3)n2)cc1", "inhibition": "-4.34%"}, {"smiles": "Cc1ccc(O)c(C2=Nc3ccccc3N=C(c3cccc(F)c3)C2)c1", "inhibition": "23.9%"}, {"smiles": "O=C(Nc1ccc(C(=O)N2CCN(c3ccc(Cl)cc3)CC2)cc1)c1nsc2ccccc12", "inhibition": "-24.7%"}, {"smiles": "Cc1ccc2oc(-c3cc(NC(=O)c4cccs4)cc(C)c3O)nc2c1", "inhibition": "-14.5%"}, {"smiles": "O=C(NC1CCN(Cc2ccccc2)CC1)C1CCN(S(=O)(=O)c2ccc(Cl)cc2)CC1", "inhibition": "active: 33.2%"}, {"smiles": "COc1ccc(Br)cc1CNC(=O)C1COc2ccccc2C1", "note": "(configuration not stated)", "inhibition": "5.69%"}, {"smiles": "CC(C)(C)C(=O)n1nc(-c2ccccc2)oc1=O", "inhibition": "active: 30.5%"}, {"smiles": "COc1ccc(CNC(=O)CN2C(=O)COc3ccc(S(=O)(=O)N4CCOCC4)cc32)cc1", "inhibition": "4.41%"}, {"smiles": "CCc1ccccc1NC(=O)c1cc(-c2ccc3c(c2)OCO3)on1", "inhibition": "-11.6%"}, {"smiles": "CCOCN(C(=O)Cn1cnc2cc(C)c(C)cc21)c1c(C)cccc1CC", "inhibition": "-7.83%"}, {"smiles": "CC1CCCCN1C(=O)CSc1nnc(-c2ccccc2Cl)o1", "note": "(configuration not stated)", "inhibition": "5.28%"}, {"smiles": "CCOc1ccc(N(CC)S(=O)(=O)N2CCCC(C(=O)NCCc3ccccc3OC)C2)cc1", "note": "(configuration not stated)", "inhibition": "17.5%"}, {"smiles": "COc1ccccc1CNC(=O)Cn1c(=O)ccc2cc(S(=O)(=O)N3CCCC3)ccc21", "inhibition": "-2.8%"}, {"smiles": "COc1ccc(-c2cn3nc(N4CCC(C(=O)Nc5ccc(C)cc5)CC4)sc3n2)cc1", "inhibition": "5.87%"}, {"smiles": "CCOc1ccccc1N(CC(=O)Nc1ccc(OC)c(Cl)c1)S(=O)(=O)c1ccccc1", "inhibition": "1.78%"}, {"smiles": "Cc1ccc2oc3c(c(=O)c2c1)C(c1ccc(OCC(N)=O)cc1)N(Cc1ccc2c(c1)OCO2)C3=O", "note": "(configuration not stated)", "inhibition": "8.25%"}, {"smiles": "CNC(=O)CSc1nnc(NC(=O)Nc2ccccc2)s1", "inhibition": "8.09%"}, {"smiles": "COc1ccc(NC(=O)C(=O)NCC2(c3ccccc3)CCCC2)c(OC)c1", "inhibition": "-16.8%"}, {"smiles": "COc1ccc(C(=O)NCC(c2ccc3c(c2)OCO3)N2CCN(c3ccc(F)cc3)CC2)cc1", "note": "(configuration not stated)", "inhibition": "8.83%"}, {"smiles": "Cc1ccc(N(CC(C)C)S(=O)(=O)c2nnc(NC(=O)c3cccs3)s2)cc1", "inhibition": "11%"}, {"smiles": "Fc1ccc(Nc2nc(Nc3ccc(F)cc3)nc(N3CCOCC3)n2)cc1", "inhibition": "6.05%"}, {"smiles": "CCCCn1c(SCC(=O)Nc2ccc(F)cc2)nc2c(sc3ccccc32)c1=O", "inhibition": "-20.4%"}, {"smiles": "CC(C)c1ccc(NC(=O)Cn2nnc(C(=O)NCc3cccs3)c2N)cc1", "inhibition": "-2.95%"}, {"smiles": "Cc1ccc2nc(SCC(=O)Nc3ccc(C#N)cc3)[nH]c2c1", "inhibition": "-1.8%"}, {"smiles": "Cc1ccn2c(Nc3ccc4c(c3)OCCO4)c(-c3ccc(C)s3)nc2c1", "inhibition": "-6.59%"}, {"smiles": "O=C(COC(=O)CCNS(=O)(=O)c1ccccc1)Nc1ccc(OC(F)F)cc1", "inhibition": "active: 49.9%"}, {"smiles": "Cc1c(C(=O)N2CCC(C)CC2)c(S(=O)(=O)N2CCN(c3cccc(Cl)c3)CC2)c(C)n1C", "inhibition": "0.994%"}, {"smiles": "COc1ccc(OC)c(NC(=O)CCc2nc(-c3ccc(C)cc3)no2)c1", "inhibition": "5.82%"}, {"smiles": "CN1C(=O)c2[nH]nc(-c3ccc(F)cc3)c2C1c1ccccn1", "note": "(configuration not stated)", "inhibition": "12.8%"}, {"smiles": "COc1ccc(S(=O)(=O)c2cn(Cc3ccccc3)c3cc(F)c(F)cc3c2=O)cc1", "inhibition": "-6.68%"}, {"smiles": "Clc1ccccc1CN1CCN(CCCc2ccccc2)CC1", "inhibition": "active: 65.4%"}, {"smiles": "O=c1c(S(=O)(=O)c2ccc(Cl)cc2)cn(Cc2ccc(F)cc2)c2ccc(F)cc12", "inhibition": "-1.95%"}, {"smiles": "CC(C)CCN(Cc1ccco1)C(=O)Cn1ncc2c([nH]c3ccccc32)c1=O", "inhibition": "-7.43%"}, {"smiles": "COc1ccccc1NC(=O)c1cc(C2CC2)nc2c1c(C)nn2-c1ccc(C)cc1", "inhibition": "2.28%"}, {"smiles": "O=c1c(N2CCc3ccccc3C2)csc2ccc(Br)cc12", "inhibition": "-11.2%"}, {"smiles": "Cc1cc(C)n(C(=O)CNc2ccccc2Cl)n1", "inhibition": "active: 32.2%"}, {"smiles": "COc1ccccc1Cc1nc2ccccc2nc1SCC(=O)N1CCC(C)CC1", "inhibition": "16.9%"}, {"smiles": "CCOC(=O)c1cc(-c2ccccc2)n(CCCC(=O)Nc2cc(C)ccc2OC)c1C", "inhibition": "-0.389%"}, {"smiles": "Cc1cccc(C(=O)Nc2ccc(N3CCN(c4ccc(F)cc4)CC3)c(C(=O)O)c2)c1", "inhibition": "-14.9%"}, {"smiles": "Cc1cccc(N2CCN(c3c4c(nc5nncn35)CCC4)CC2)c1C", "inhibition": "2.96%"}, {"smiles": "C=Cc1ccc(Cn2c(=O)cc(C)c3c(C)nn(C)c32)cc1", "inhibition": "0.154%"}, {"smiles": "COc1cc(-c2nnc(SCC(=O)Oc3ccccc3Cl)o2)cc(OC)c1OC", "inhibition": "-13.9%"}, {"smiles": "COc1ccc(S(=O)(=O)c2cn(Cc3ccccc3)c3ccc(OC)cc3c2=O)cc1", "inhibition": "26.2%"}, {"smiles": "CN(C)c1ccc(C(CNS(=O)(=O)c2ccc(F)cc2)N2CCc3ccccc32)cc1", "note": "(configuration not stated)", "inhibition": "6.69%"}, {"smiles": "COc1ccccc1NC(=O)c1cc(S(=O)(=O)N2CCc3ccccc32)ccc1F", "inhibition": "27.1%"}, {"smiles": "COc1ccc(NC(=O)c2cc3c(=O)n(Cc4cccnc4)ccc3nc2C)cc1Cl", "inhibition": "-11.8%"}, {"smiles": "Cc1oc(-c2cccc(Cl)c2)nc1CN1CCC(C(=O)NCCc2ccc(Cl)cc2)CC1", "inhibition": "7.21%"}, {"smiles": "COc1cccc(OCC(=O)Nc2nnc3n2CCS3)c1", "inhibition": "11.4%"}, {"smiles": "CCc1ccc(C2=C(C)C(N3CCC(C(=O)NCCc4ccco4)CC3)=NS2(=O)=O)cc1", "inhibition": "8.72%"}, {"smiles": "COc1ccc(C(=O)Nc2ccc(N3CCOCC3)c(C(F)(F)F)c2)cc1OC", "inhibition": "-4.4%"}, {"smiles": "Cc1nn(C)c(C)c1NC(=S)Nc1ccc(S(=O)(=O)Nc2ncccn2)cc1", "inhibition": "active: 30.5%"}, {"smiles": "Cc1cccc(NC(=O)CSc2nc(=O)n(Cc3cccnc3)c3c2CCC3)c1C", "inhibition": "-22.6%"}, {"smiles": "CCc1ccc(CNC(=O)CN2C(=O)CCn3nc(-c4cn(C)c5ccccc45)cc32)cc1", "inhibition": "6.62%"}, {"smiles": "COc1ccccc1-c1nnc(SCC(=O)c2ccc(F)cc2)n1-c1ccccc1", "inhibition": "3.18%"}, {"smiles": "Cn1nnnc1SCCNCc1ccc(OCc2ccc(Cl)cc2)cc1", "inhibition": "-18.9%"}, {"smiles": "O=C(Nc1cccc(Cl)c1)C1CCCN1S(=O)(=O)c1cccc2cccnc12", "note": "(configuration not stated)", "inhibition": "-5.73%"}, {"smiles": "Cc1ccc(CN2C(=O)c3ccccc3Sc3ccc(C(=O)NCCCN4CCOCC4)cc32)cc1", "inhibition": "-9.33%"}, {"smiles": "Cc1cc(Cl)ccc1OCc1cc(=O)n2c3c(sc2n1)CCCC3", "inhibition": "-0.183%"}, {"smiles": "CCC(=O)N1CCc2cc(CNC(=O)Nc3cc(Cl)ccc3C(=O)OC)ccc21", "inhibition": "4.98%"}, {"smiles": "COc1ccc(N2CCN(C(=O)COC(=O)c3cccc(S(=O)(=O)Nc4cccc(C)c4)c3)CC2)cc1", "inhibition": "active: 40.2%"}, {"smiles": "CCc1cccc(NC(=O)C(CC(C)C)NS(=O)(=O)c2ccc3c(c2)oc(=O)n3C)c1", "note": "(configuration not stated)", "inhibition": "24.4%"}, {"smiles": "COc1ccccc1CN1CCC(CNC(=O)c2cnn(-c3ccc(C)c(C)c3)c2C2CCN(C(=O)OC(C)(C)C)CC2)CC1", "inhibition": "-11.4%"}, {"smiles": "CCCN(CCC)CCNC(=O)c1cc(-c2ccc(Br)s2)nc2ccccc12", "inhibition": "1.99%"}, {"smiles": "Brc1ccc2nc(-c3ccccc3)c(Nc3ccc4c(c3)OCO4)n2c1", "inhibition": "5.42%"}, {"smiles": "CCc1noc(-c2ccc(N3CCCCC3)c([N+](=O)[O-])c2)n1", "inhibition": "18.4%"}, {"smiles": "Cc1cc(OCC(=O)NCC2(N3CCOCC3)CCCCC2)ccc1Cl", "inhibition": "10.1%"}, {"smiles": "Cc1cccc(N2CCN(C(c3ccccc3)c3nnc(-c4ccccc4Cl)o3)CC2)c1C", "note": "(configuration not stated)", "inhibition": "6.81%"}, {"smiles": "Fc1ccccc1N1CCN(c2ncc3c(n2)CCN(Cc2cc(Br)cs2)C3)CC1", "inhibition": "-3.68%"}, {"smiles": "CCOc1ccccc1NC(=O)C(c1ccccc1)N1Cc2ccccc2C1=O", "note": "(configuration not stated)", "inhibition": "-7.99%"}, {"smiles": "Cn1nnc2c(N3CCN(c4cccc(C(F)(F)F)c4)CC3)ncnc21", "inhibition": "-23.8%"}, {"smiles": "COc1ccc(OC)c(CNC(=O)CN2CC(C)Sc3ccccc32)c1", "note": "(configuration not stated)", "inhibition": "-2.97%"}, {"smiles": "O=C(Nc1cccc(F)c1F)C1CCN(c2ncccn2)CC1", "inhibition": "5.92%"}, {"smiles": "CCSc1nn(CC(=O)Nc2ccc(C(=O)OC)cc2)c(N)c1S(=O)(=O)c1ccc(C)cc1", "inhibition": "4.59%"}, {"smiles": "COC(=O)c1cc2occc2n1CC(=O)Nc1ccc(C(C)C)cc1", "inhibition": "-8.39%"}, {"smiles": "O=C(Nc1ccc(F)cc1)N1CCN(C(=O)c2nsc3ccccc23)CC1", "inhibition": "-2.66%"}, {"smiles": "COc1cccc(-n2nnc(-c3nc(-c4ccccc4F)no3)c2C)c1", "inhibition": "-6.7%"}, {"smiles": "COC(=O)c1cc(NC(=O)c2ccc3c(c2)NC(=O)c2ccccc2S3)cc(C(=O)OC)c1", "inhibition": "13.1%"}, {"smiles": "COc1ccc(-c2nc3c(c(SCC(=O)N4CCCCC4)n2)Cc2c(CO)cnc(C)c2O3)cc1", "inhibition": "3.91%"}, {"smiles": "CSc1cccc(NC(=O)Cn2ncn3c(cc4ccccc43)c2=O)c1", "inhibition": "-3.25%"}, {"smiles": "O=C(NC1CCN(Cc2ccccc2)CC1)c1cncc(Br)c1", "inhibition": "active: 84.6%"}, {"smiles": "O=C1COc2ccc(-c3cc(-c4ccccc4)c4c(n3)-c3cc(Cl)ccc3OC4)cc2N1", "inhibition": "-0.0482%"}]}]}
